A word on the AC50: it is the concentration at which the activity in the assay is half-maximal.

The text below walks through data of PubChem BioAssay (EPA / NIEHS).

The nature of test [1]: ATG_DR4_LXR_CIS: Attagene CIS-FACTORIAL HepG2 Assay for human Liver X Receptor (LXR), DR4 submotif (AID 2282929). As to conditions: HepG2 Attagene DR4 cis-reporter, mRNA transcription; actives raise or lower the signal. On the procedure: ATG_CIS is a cell-based, multiplexed-readout assay that uses HepG2, a human liver cell line, with measurements taken at 24 hours after chemical dosing in a 24-well plate.ATG_DR4_LXR_CIS is one of 52 assay component(s) measured or calculated from the ATG_CIS assay. It is designed to make measurements of mRNA induction, a form of inducible reporter, as detected with fluorescence intensity signals by Reverse transcription polymerase chain reaction (RT-PCR) and Capillary electrophoresis technology.Data from the assay component ATG_DR4_LXR_CIS was analyzed into 1 assay endpoint. This assay endpoint, ATG_DR4_LXR_CIS, was analyzed with bidirectional fitting relative to DMSO as the negative control and baseline of activity. […] Furthermore, this assay endpoint can be referred to as a primary readout, because this assay has produced multiple assay endpoints where this one serves a reporter gene function. […]
Human liver HepG2 cells are transiently transfected with multiple reporter transcription units (MRTUs) in 6-well plates using FuGene 6 reagent (Roche; 3 ml FuGene/1 mg DNA). […] A major difference between the CIS and TRANS system is that in CIS activities of endogenous TFs are measured, whereas the TRANS assay evaluates changes in activities of exogenous, chimeric NR-Gal4 proteins. […]

Test [2] in a line: ATG_AP_2_CIS: Attagene CIS-FACTORIAL HepG2 Assay for human Activator Protein 2 (AP-2) (AID 2282932). As to conditions: HepG2 AP-2 cis-reporter, Attagene transcription factor profiling; actives raise or lower the signal. In a few lines: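 Step one: transient transfection of HepG2 with reporter transcription units. Step two: 24 h chemical exposure. Step three: RNA extraction, RT-PCR, labelled fragment analysis by capillary electrophoresis; DMSO serves as baseline.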

Test [3] is described as follows: ATG_E_Box_CIS: Attagene CIS-FACTORIAL HepG2 Assay for human Enhancer Box (E-box) (AID 2282936). As to conditions: HepG2 E-box cis-reporter transcription, actives raise or lower the signal. The method, boiled down: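 DMSO served as negative control and baseline for bidirectional fitting. Human hepatoma HepG2 cells, transiently transfected with cis-reporter constructs, were dosed 24 h; reporter mRNA read by RT-PCR and capillary electrophoresis.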

Test [4] in a line: ATG_FoxO_CIS: Attagene CIS-FACTORIAL HepG2 Assay for human Forkhead box O (FoxO) (AID 2282943). As to conditions: HepG2 Attagene cis-reporter, FoxO element, mRNA; actives raise or lower the signal. In a few lines:
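HepG2, transient MRTU transfection (cis element, endogenous TFs). Dose 24 h. TriZol RNA → oligo(dT) RT → PCR → 6-FAM primer extension → HpaI cut → CE. Gain/loss vs DMSO.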

The nature of test [5]: ATG_ISRE_CIS: Attagene CIS-FACTORIAL HepG2 Assay for human Interferon Regulatory Factor 1 (IRF1) binding to an Interferon-Stimulated Response Element (ISRE) (AID 2282948). As to conditions: HepG2 ISRE cis-reporter (Attagene), mRNA transcription readout; actives raise or lower the signal. The method, boiled down: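 Transiently transfected HepG2 cells carrying cis-element reporter units, dosed 24 hours. Reporter mRNA quantified by RT-PCR, fluorescent primer extension, HpaI digestion and capillary electrophoresis. Bidirectional fitting relative to DMSO.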

Test [6] is described as follows: ATG_PXRE_CIS: Attagene CIS-FACTORIAL HepG2 Assay for human Pregnane X Receptor Element (PXRE) (AID 2282957). As to conditions: HepG2 Attagene CIS-FACTORIAL PXRE reporter, mRNA; actives raise or lower the signal. The method, boiled down: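 Transfect HepG2 with MRTUs (cis promoter elements); dose chemical, incubate 24 h; isolate RNA, RT with oligo(dT), PCR, 6-FAM label, HpaI cut, CE. Gain/loss fit vs DMSO.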

Test [7] in a line: ATG_TGFb_CIS: Attagene CIS-FACTORIAL HepG2 Assay for human Transforming Growth Factor (TGF) (AID 2282967). The following applies: HepG2 Attagene CIS TGFb reporter, mRNA transcription; actives raise or lower the signal. In a few lines: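 Bidirectional fitting relative to DMSO gave the endpoint. Underlying data: reporter mRNA from HepG2 cells carrying transiently transfected cis-regulated reporter constructs, harvested 24 h after dosing and analyzed by RT-PCR and capillary electrophoresis.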

Test [8] in a line: ATG_NRF2_ARE_CIS: Attagene CIS-FACTORIAL HepG2 Assay for human Nuclear Factor Erythroid 2 Related Factor 2 (NFR2) response to Antioxidant Response Elements (ARE) (AID 2282992). As to conditions: HepG2 Attagene ARE/NRF2 reporter, transcription factor activity; actives raise or lower the signal. In a few lines:
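HepG2 cells transiently transfected with multiplexed cis-element reporter constructs, 24 h after chemical dosing; reporter mRNA quantified by RT-PCR, fluorescent primer extension, HpaI digestion and capillary electrophoresis. Bidirectional fit relative to DMSO.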

Some entries of the source have several records that differ or are many. The list is limited to them. How the source made its calls: active means hit-call score of the fitted dose curve at least 0.9, where 1 is the maximum; inactive means score below 0.9. The source may hold further records. Values given together are repeated measurements (runs, samples, wells, individuals or studies).

`C[C@@H]1C[C@@H]([C@H](O)CC2CC(=O)NC(=O)C2)C(=O)[C@@H](C)C1`: the AC50 entry in test [1] was “active: 41.2 µM, 316 nM, 24.2 µM, 19 µM [separate samples]”; in test [2], “active: 479 nM, 2.86 µM, 655 nM, 1.92 µM [separate samples]”; in test [3], “active: 2.39 µM, 970 nM, 2.62 µM, 3.75 µM [separate samples]”; in test [4], “active: 22.6, 1.81, 4.75, 4.19 µM [separate samples]”; in test [5] it was “active: 2.87, 6.8, 1.2, 2.31 µM [separate samples]”; in test [6], “active: 6.53, 23.4, 3.24, 12.9 µM [separate samples]”. Besides, the AC50 result in test [7] was “active: 32.1, 22.3, 5.52, 8.87 µM [separate samples]”; in test [8], “active: 231 nM, 17.8 µM, 3.83 µM, 22.1 µM [separate samples]”.

`O=C1C2(Cl)C3(Cl)C4(Cl)C(Cl)(Cl)C5(Cl)C3(Cl)C1(Cl)C5(Cl)C24Cl` (centres undefined): the AC50 entry in test [6] was “active: 945 nM, 929 nM, 1.12 µM, 20 µM [separate samples]”.
